# Test results as given in the supplement of paper PMC10369915.
# The list shows a part of the results. Rule as the data show it: active = 3.2 or more and inactive = the rest. Only a few entries rise above the background.
# B1: PSMD9_Y70 (peptide)
# chain: SDVDLYQVRTA
# B2: PSMB1_Y8 (peptide)
# chain: SSTAMYSAPGR
# B3: PSTPIP1_Y53_Q48H (peptide)
# chain: HAEERYGKELV
# B4: PTEN_Y176_Y174N_YF (peptide)
# chain: QRRNVYFFSFL
# B5: PTEN_Y138 (peptide)
# chain: VMICAYLLHRG
# B6: PSME1_Y249 (peptide)
# chain: TKGMIYGGGGG
# B7: PTEN_Y174_V175L_YF (peptide)
# chain: PSQRRYLFFFS
# B8: PTEN_Y155 (peptide)
# chain: EALDFYGEVRT
# B9: PSTPIP2_Y323_N322D (peptide)
# chain: PDDPDYSLVDD
# B10: PTEN_Y174_R173C_YF (peptide)
# chain: PSQRCYVFFFS
# B11: PTEN_Y174_R173H_YF (peptide)
# chain: PSQRHYVFFFS
# B12: PTAR1_Y42_R41S (peptide)
# chain: CPEASYNRSPI
# B13: PSMA7_Y110 (peptide)
# chain: EYITRYIASLK
# B14: PTEN_Y176_V175L_YF (peptide)
# chain: QRRFLYFFSFL
# B15: PTEN_Y177_R173C (peptide)
# chain: RCYVYYYSYLL
# B16: PTEN_Y174_V175L (peptide)
# chain: PSQRRYLYYYS
# B17: PTEN_Y176_V175L (peptide)
# chain: QRRYLYYYSYL
# B18: PTEN_Y174_R173P_YF (peptide)
# chain: PSQRPYVFFFS
# Target: SHP2 C-SH2 domain E139D
# Assay: enrichment score (SH2-bound / input frequency) (ratio); bacterial display of known human phosphotyrosine sites (pTyr-Var adds point mutants) read by sequencing; higher = stronger binding; tyrosines were phosphorylated by kinases first
# Settings: peptide library: pTyr-Var
# 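Also: displayed peptides selected on beads carrying the immobilized SH2 domain, with library peptides lacking any tyrosine serving as negative controls.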
row,Binder,enrichment score
1,B1,inactive: 0.716
2,B2,inactive: 0.661
3,B3,inactive: 0.631
4,B4,inactive: 1.58
5,B5,inactive: 1.64
6,B6,inactive: 0.627
7,B7,inactive: 0.755
8,B8,inactive: 0.883
9,B9,inactive: 0.521
10,B10,inactive: 2.38
11,B11,inactive: 1.97
12,B12,inactive: 0.895
13,B13,inactive: 1.1
14,B14,inactive: 0.679
15,B15,inactive: 1.16
16,B16,inactive: 0.222
17,B17,inactive: 0.405
18,B18,active: 3.59

# Target: SHP2 C-SH2 domain wild-type
# Assay: as above
# Settings: peptide library: pTyr-Var
row,Binder,enrichment score
1,B1,inactive: 0.69
2,B2,inactive: 0.405
3,B3,inactive: 0.671
4,B4,inactive: 0.94
5,B5,inactive: 1.86
6,B6,inactive: 0.534
7,B7,inactive: 0.356
8,B8,inactive: 0.699
9,B9,inactive: 0.776
10,B10,inactive: 2.21
11,B11,inactive: 2.59
12,B12,inactive: 0.821
13,B13,inactive: 1.2
14,B14,inactive: 0.655
15,B15,inactive: 1.04
16,B16,inactive: 0.4
17,B17,inactive: 0.396
18,B18,inactive: 3.1

# Target: SHP2 N-SH2 domain L43F
# Assay: as above
# Settings: peptide library: pTyr-Var
row,Binder,enrichment score
1,B1,inactive: 0.66
2,B2,inactive: 0.437
3,B3,inactive: 0.66
4,B4,inactive: 1.05
5,B5,inactive: 1.71
6,B6,inactive: 0.447
7,B7,inactive: 0.413
8,B8,inactive: 0.674
9,B9,inactive: 0.605
10,B10,inactive: 2.13
11,B11,inactive: 1.88
12,B12,inactive: 0.711
13,B13,inactive: 1.24
14,B14,inactive: 0.698
15,B15,inactive: 0.875
16,B16,inactive: 0.352
17,B17,inactive: 0.327
18,B18,active: 3.32

# Target: SHP2 N-SH2 domain T42A
# Assay: as above
# Settings: peptide library: pTyr-Var
row,Binder,enrichment score
1,B1,inactive: 0.639
2,B2,inactive: 0.441
3,B3,inactive: 0.521
4,B4,inactive: 1.22
5,B5,inactive: 1.81
6,B6,inactive: 0.38
7,B7,inactive: 0.428
8,B8,inactive: 0.603
9,B9,inactive: 0.497
10,B10,inactive: 1.96
11,B11,inactive: 1.87
12,B12,inactive: 0.601
13,B13,inactive: 0.99
14,B14,inactive: 0.741
15,B15,inactive: 0.73
16,B16,inactive: 0.197
17,B17,inactive: 0.43
18,B18,active: 3.45

# Target: SHP2 N-SH2 domain T52S
# Assay: as above
# Settings: peptide library: pTyr-Var
row,Binder,enrichment score
1,B1,inactive: 0.667
2,B2,inactive: 0.406
3,B3,inactive: 0.394
4,B4,inactive: 1.19
5,B5,inactive: 1.51
6,B6,inactive: 0.507
7,B7,inactive: 0.427
8,B8,inactive: 0.734
9,B9,inactive: 0.498
10,B10,inactive: 1.95
11,B11,inactive: 1.81
12,B12,inactive: 0.546
13,B13,inactive: 0.926
14,B14,inactive: 0.634
15,B15,inactive: 0.739
16,B16,inactive: 0.499
17,B17,inactive: 0.574
18,B18,active: 3.26

# Target: SHP2 N-SH2 domain wild-type
# Assay: as above
# Settings: peptide library: pTyr-Var
row,Binder,enrichment score
1,B1,inactive: 0.608
2,B2,inactive: 0.533
3,B3,inactive: 0.821
4,B4,inactive: 1.2
5,B5,inactive: 1.89
6,B6,inactive: 0.451
7,B7,inactive: 0.463
8,B8,inactive: 0.958
9,B9,inactive: 0.679
10,B10,inactive: 2.08
11,B11,inactive: 1.54
12,B12,inactive: 1.1
13,B13,inactive: 0.992
14,B14,inactive: 0.387
15,B15,inactive: 0.886
16,B16,inactive: 0.263
17,B17,inactive: 0.497
18,B18,inactive: 2.45
